From PubChem BioAssay AID1963576 (National Center for Advancing Translational Sciences (NCATS), 2024)
In all, about 46,000 compounds went through this assay and about 60 (0.1%) were called active. Not shown: some 3% with an inconclusive outcome. Calls come from the whole dose curve; as a rule, active = well fitted inhibition curve with a large enough effect; inconclusive = small, poorly fitted or top-dose-only effect; inactive = no such curve, though single readings can be large or run the other way. This is one part of the list.

Experiment: Primary qHTS assay for Inhibitors of ovarian cancer metastasis using an organotypic tumor microenvironment (TME) model.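 For activity change, negative = inhibition: plate controls were DMSO wells for no effect and tomatine positive control wells for full effect.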 Note: nearly all actives have a fitted effect of over 65% in size.
Settings: SKOV3ip1-GFP adhesion/invasion on 3D omental model, fluorescence; series mostly up to 45.8 µM; activity change, negative = inhibition: at the top concentration
Summary of the method: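 A 3D layer of primary human omental fibroblasts, mesothelial cells, fibronectin and collagen I, grown 48 hr, received SKOV3ip1-GFP cells in serum-free medium plus compounds at 0.36-46 umol/L. After 2 hr RT and 16 hr 37 C, fixed adherent GFP cells were counted; normalized to DMSO and tomatine.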

Activity change, negative = inhibition, inactive:
COc1ccc(NC(=O)C(C)N(c2ccccc2)S(C)(=O)=O)cc1 (stereo not given) 6.07%
O=C(c1ccccc1Cl)N1CCCCC1CCN1CCCCC1 (stereo not given) -15.5%
Cc1nn2c(=O)cc(COC(=O)c3ccccc3NC(=O)C(C)Oc3ccccc3)nc2s1 (stereo not given) -1.07%
CCOc1ccc(CN2CCc3nc(Nc4ccc5c(c4)OCCO5)ncc3C2)cc1 -0.325%
COc1ccc(NCc2cc3cc4c(cc3n(CC(=O)Nc3cc(C)ccc3C)c2=O)OCCO4)cc1 3.64%
CC(C)c1ccc(NS(=O)(=O)c2ccc3nc(-c4ccccc4)[nH]c3c2)cc1 -2.4%
COc1ccc(CCNC(=O)c2ccc(Cn3c(=O)c4ccccc4n(Cc4cccc(Cl)c4)c3=O)cc2)cc1OC 118%
CCOc1ccccc1NC(=O)C(CC)Sc1nc2ccncc2[nH]1 (stereo not given) -8.76%
CCN(CC)c1cc2c(cc1F)c(=O)c(S(=O)(=O)c1cccc(C)c1)cn2C 2.02%
Cc1ccc(-c2cn(-c3cccc(Cl)c3)c(S(=O)(=O)CC(=O)Nc3ccccc3F)n2)cc1 -10.5%
Cc1ccc(-n2nc3c(=O)n(CCCC(=O)NCCc4ccccc4Cl)nc(C)c3c2C)cc1 -15.8%
CCOc1ccc(C2CC(=O)N(c3cccc(F)c3)C3=C2C(=O)OC3)cc1 (stereo not given) 1.11%
Cn1c(=O)c2cc(C(=O)NCCCN3CCN(c4ccccc4F)CC3)sc2c2ccccc21 14.5%
Cc1ccc(-n2c(=O)c3ccc(C(=O)NCc4ccco4)cc3n(Cc3ccccc3C#N)c2=O)cc1 -7.77%
Cc1ccccc1Cn1c(=O)n(Cc2ccc3c(c2)OCO3)c(=O)c2oc3ccccc3c21 -2.32%
O=C(NC1CCCC1)c1ccc2c(c1)N(Cc1ccc(C(F)(F)F)cc1)C(=O)c1ccccc1S2 -4.59%
O=C(c1cccs1)N(Cc1cccnc1)c1nc2c(Cl)cccc2s1 3.91%
O=C(c1ccc(C(F)(F)F)cc1)N1CCC(c2noc(-c3ccc(S(=O)(=O)N4CCCC4)cc3)n2)CC1 -0.638%
COc1ccc(Nc2c3c(nc4ccc(NC(=O)/C=C/c5cc(OC)c(OC)c(OC)c5)cc24)CCCC3)cc1OC -8.85%
O=C(Nc1ccc(-c2nc3cc(NC(=O)c4ccccc4Cl)ccc3o2)cc1)c1ccccc1Cl -29.1%

outcome, inactive:
O=C(Nc1nnc2n1CCS2)c1ccc(F)cc1F
Cc1ccc(NC(=O)Cn2c(=O)n(Cc3ccco3)c(=O)c3ccccc32)c(C)c1
COc1ccc(NC(=O)c2ccc3c(c2)sc2nc(-c4ccc(OC)cc4)cn23)cc1
Cc1ccc(NC(=O)CN2C(=O)CCc3cc(S(=O)(=O)N4CCOCC4)ccc32)cc1N(C)C
O=C(CCc1nc2cccnc2n1Cc1cccs1)Nc1cccc(C(F)(F)F)c1
